Consider 79 compounds from PubChem BioAssay (NCI).

Where “and” joins values, the source holds several entries; their conditions need not be identical. Equal entries are not always repeated.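 48-hour exposure; five concentrations; linearly interpolated endpoints. GI50 marks 50% less growth. TGI marks complete inhibition of growth.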

This assay deals with NCI-H322M lung. Kind of assay: growth of human tumour cells (NCI), 48 h.

In turn, `O=C(O)/C=C/n1c2ccccc2c(=O)c2ccccc21` gave a TGI of over 100 µM. In turn, `C[C@H]1O[C@@H](c2c(O)ccc3ccccc23)C[C@@H](N(C)C)C1O` (stereo partly drawn) had a TGI of over 100 µM. `CCCCCCC(=O)OC[n+]1ccc2c(C)c3[nH]c4ccccc4c3c(C)c2c1`: the TGI worked out at 2.74 µM. Still for that read-out and setting: under `COC1=C2CC(C)CC(OC)[C@@H](OC(=O)CCN)[C@H](C)/C=C(\C)C(OC(N)=O)C(OC)/C=C\C=C(/C)C(=O)NC(=CC1=O)C2=O` (stereo partly drawn) stands 30.2 µM.

As for `CC[C@H](C)[C@H]1NC(=O)[C@@H](N[C@](C)(O)[C@@H](N)CC(C)C)[C@@H](C)OC(=O)[C@H](Cc2ccc(OC)cc2)N(C)C(=O)[C@@H]2CCCN2C(=O)[C@H](CC(C)C)NC(=O)[C@@H](C)C(=O)[C@H](C(C)C)OC(=O)C[C@@H]1O`, the GI50 was 0.0105 µM and the TGI stood at 0.146 µM. For `CC(C)=CCC[C@H](C)[C@@H]1CC[C@]2(C)C3CC[C@]4(OC4(C)C)C(CCCO)[C@]3(C)CC[C@@]12C` (stereo partly drawn) the same measures were 17.3 µM and 36.9 µM.

The compound `COc1ccc(N2C(=O)C3c4[nH]c5ccccc5c4C4CCCCCCCCCCC4C3C2=O)cc1` (stereo not drawn) came in with a TGI of over 63.2 µM. On to `Nc1ccccc1CCCC(=O)O`, for which the TGI was over 100 µM. Still for that read-out and setting: then `O=c1cc(-c2ccccc2)[nH]c2cc(F)c(F)cc12`, with over 100 µM; and `Cc1ccc(Cl)c2c(=O)c3ccc([N+](=O)[O-])cc3sc12`, with over 100 µM; and `CCOC(=O)c1cc2c(ccc3cc(C(=O)OCC)[nH]c32)[nH]1`, with over 100 µM. `CCOC(=O)Cc1nnc2c(-c3ccccc3)nc3ccccc3n12` gave a TGI of 51.4 µM.

Turning to `COc1cc(O)c2c(O)c3c(c4c2c1[C@]1(C4)C(C)=CCCC1(C)C)[C@H](O)[C@@]1(O)CC(=O)C(C(N)=O)=C(O)[C@@]1(O)C3=O`, the TGI came to 1.75 µM. As for `CCCN(CCCCC(NC(C)=O)C(=O)NCc1ccccc1)C(=O)N(C)N=O` (stereo not drawn), the TGI is over 100 µM. Compound `CN(C)c1ccc(/C=C2/SC(=S)NC2=O)cc1` gave a TGI of over 100 µM.

In turn, `COCO[C@@H]1C[C@H]2C(O)Nc3ccccc3C(=O)N2C1` (stereo partly drawn) displayed a TGI of over 100 µM.

`O=C(/C=C(\O)c1ccc(Cl)cc1)C(=O)N=Nc1c(O)[nH]c2ccc(Br)cc12`: the TGI was over 100 µM. Same read-out and setting: then `COC(=O)CCC(=O)CC(=O)C1=NS(=O)(=O)c2nc(S(N)(=O)=O)c(Cl)cc2N1`, with over 100 µM; and `CC1=C(C)C(=O)O[C@@H]([C@](C)(O)[C@]2(O)CC[C@@]3(O)[C@@H]4C[C@H]5O[C@]56[C@@H](O)C=CC(=O)[C@]6(C)[C@H]4CC[C@]23C)C1`, with 4.94 µM. Turning to `O=C(Nc1ccccc1O)c1cccc(NC2=C(Cl)C(=O)N(Cc3ccccc3)C2=O)c1`, the GI50 is 15.6 µM and the TGI is 29 µM. For the compound `CCOP(C)(=O)C(Cc1c[nH]c2ccccc12)C(=O)O` (stereo not drawn), the TGI is over 100 µM. `O=S1(=O)OCCOS(=O)(=O)C1I` yielded a TGI of over 100 µM. In the case of `Cc1c(Cl)ccc2c1NC(=O)C2(O)C(C(=O)c1ccccc1)c1ccccc1` (stereo not drawn), the TGI is over 100 µM.

`Cc1cc(NS(=O)(=O)c2ccc(N=Nc3cc(N=Nc4ccc(S(=O)(=O)Nc5cc(C)nc(C)n5)cc4)c4c(NC(=O)C(Cl)Cl)cccc4c3OC(=O)C(Cl)Cl)cc2)nc(C)n1` (tested in a mixture with another compound) showed a TGI of 36.7 µM.

`Oc1ccccc1-c1nn(CNc2cccc(Cl)c2)c(=S)o1`: the GI50 was 5.49 µM and the TGI is over 100 µM. `O=C1/C(=C/C=C/c2ccccc2)N=C(c2ccccc2)N1C1Nc2cc3c(cc2S1)NC(N1C(=O)/C(=C/C=C/c2ccccc2)N=C1c1ccccc1)S3` (stereo not drawn) had a TGI of over 100 µM. The compound `OCC(CN1CCCCC1)(CN1CCCCC1)CN1CCCCC1` came in with a TGI of over 100 µM. `CC(=N/NC(=S)N1CCCCC1)/C(=N\NC(=S)N1CCCCC1)c1ccccc1` came in with a TGI of 3.63 µM.

As for `CC1=NN(c2ccccc2)C(=O)C1=C1SCCS1`, the TGI was over 100 µM. Regarding `C/C=C(\C)C(=O)N[C@H]1CC[C@]2(C)C3CC[C@@]4(C)C(CC[C@@H]4C(C)N(C)C)C3CCC2[C@H]1OC(C)=O` (stereo partly drawn), the GI50 is 1.81 µM and the TGI is 4.03 µM. For `CC1=C(C(=O)Nc2ccc(F)c(Cl)c2)C(c2ccccc2Cl)NC(=S)N1` (stereo not drawn), the GI50 is over 50 µM and the TGI was over 50 µM. `CCCCCCCCCCCCCC(=O)O[C@H]1CC[C@H](NC(=O)[C@H](OC)[C@H](O)[C@@H](O)[C@H](O)/C=C/C(C)C)C(=O)NC1`: the TGI was 23 µM and > 100 µM. For the compound `O=[N+]([O-])c1ccc(Br)c([N+](=O)[O-])c1`, the GI50 is 3.25 µM and the TGI is 8.41 µM. Consider `CCC(C)(C)C(=O)O[C@H]1C[C@@H](C)C=C2C=C[C@H](C)[C@H](CC[C@@H]3C[C@@H](O)CC(=O)O3)[C@H]21`, for which the GI50 was 1.3 µM; the TGI is 18.1 µM and > 30 µM. For the compound `COc1ccc(N2C(=O)C3c4[nH]c5ccc(OC)cc5c4C4CCC(C(C)(C)C)CC4C3C2=O)cc1` (stereo not drawn), the TGI is over 100 µM. `Cn1c2ccccc2c(=S)c2ccccc21` yielded a TGI of over 100 µM.

On to `O=C1CC(c2ccc(N3CCOCC3)cc2)(c2ccsc2)NC(=O)C1Sc1ccccc1Cl` (stereo not drawn), for which the GI50 was 68.7 µM and the TGI is over 100 µM.

For `C1=Cc2ccccc2Nc2ccccc21`, the GI50 is over 100 µM and the TGI was over 100 µM. The compound `Cc1nc(C)c(C(=O)NNC(=O)Cc2ccccc2)cc1C(=O)NNC(=O)Cc1ccccc1` registered a TGI of over 100 µM.

In the case of `Cc1cc(NC(=S)Nc2ccccc2)c(NC(=S)Nc2ccccc2)cc1C`, the TGI was over 100 µM. The compound `COc1cc(/C=C2\C[C@H]3[C@@H]4CC=C5C[C@@H](O)CC[C@]5(C)[C@H]4CC[C@]3(C)[C@H]2O)cc(OC)c1OC` returned a TGI of over 100 µM. Still for that read-out and setting: then `CC1(c2ccc(F)cc2)CC(c2ccc(F)cc2)=C(C#N)C(=C(C#N)C#N)N1` (stereo not drawn), with 28 µM. The compound `C=C1C(=O)O[C@@H]2[C@H]1C[C@@H](O)[C@H](C)[C@@](O)(C(=O)/C=C/C)[C@H]2OC(=O)C(C)CC` (stereo partly drawn) displayed a TGI of over 93.9 µM. The compound `COc1cc(C2c3cc4c(cc3OC(NC3CCCCC3)C2C)OCO4)cc(OC)c1OC` (stereo not drawn) returned a TGI of over 100 µM. As to `C[C@@H]1CN(C(=O)c2ccc(NC(=O)c3cc(O[C@H](C)c4c(Cl)ccc(F)c4Cl)c(N)nn3)cc2)C[C@H](C)N1`, the GI50 is 10.8 µM and the TGI is 22.6 µM. In the case of `CCSc1nc(N)c2c(-c3ccc(OC)c(OC)c3)c3c(nc2n1)CCCC3`, the TGI is over 100 µM.

The compound `CC1Cc2c(Br)nc(N)nc2NC1=O` (stereo not drawn) came in with a TGI of over 100 µM. Turning to `COc1cc2c3c(n(CCCCOC(=O)C(F)(F)F)c(=O)c2cc1OC)-c1cc2c(cc1C3=O)OCO2`, the GI50 is over 100 µM and the TGI is over 100 µM.

Consider `CN(NC(=O)c1ccco1)C1=NCCN1`, for which the TGI was over 100 µM. `COC(=O)CCCN(C)c1n[nH]c(N)n1` registered a TGI of over 100 µM.

On to `Cc1cc(N2CCCCC2)nc(N(CCCNc2ccnc3cc(Cl)ccc23)Cc2ccco2)n1`, for which the GI50 is 1.85 µM and the TGI was 9.82 µM. Regarding `COC(=O)[C@@H]1CN(C(=O)c2ccccc2)C(=O)N1`, the TGI was over 100 µM. Consider `CCc1n[nH]c(=S)n1/N=C\c1ccc(-c2ccccc2Cl)o1`, for which the TGI is over 100 µM. Consider `CCOc1c(Br)cc(C2C(C(=O)OC)=CN(C)C=C2C(=O)OC)cc1OC`, for which the GI50 is over 100 µM and the TGI is over 100 µM.

Compound `Cc1cc(O)cc2oc(=O)c3c(O)cc(O)cc3c12` had a TGI of 58.9 µM. For the compound `S=C1SC(=Nc2ccccc2)C(=Nc2ccccc2)N1c1ccccc1`, the TGI was over 100 µM.

`CN(C)c1ccc(-c2cc(=O)c3cc4c(cc3[nH]2)OCO4)cc1` registered a TGI of over 100 µM. On to `CN(C)c1ccc(N2Cc3ccccc3OC3=C2C(=O)c2c(O)ccc(O)c2C3=O)cn1`, for which the GI50 was 2.03 µM and the TGI was 5.16 µM. As for `CC[C@@H](C(=O)[C@@H](C)[C@@H](O)[C@H](C)[C@@H]1O[C@@H]([C@@H](CC)C(=O)O)CC[C@@H]1C)C1O[C@]2(C=CC(=O)[C@]3(CC[C@@](C)([C@H]4CC[C@](O)(CC)[C@H](C)O4)O3)O2)[C@H](C)C[C@@H]1C` (stereo partly drawn), the GI50 is 4.11 µM and the TGI was 19.8 µM.

Consider `Cc1ccc(/C(O)=C/c2nc3ccccc3oc2=O)cc1`, for which the TGI is over 100 µM.

In the case of `C#CCOC(=O)c1ccccc1O`, the TGI is over 100 µM.

Compound `N#Cc1c(-c2ccc(Cl)cc2)cc(-c2ccc(Nc3ccnc4cc(C(F)(F)F)ccc34)cc2)[nH]c1=O` had a TGI of over 100 µM.

For the compound `CC1=NN(c2cccc(Cl)c2)C2(SCC(=O)N2c2nc3ccccc3s2)/C1=C\c1ccc(Cl)cc1` (stereo not drawn), the TGI is over 100 µM. As to `CCCCON1C[C@@H](O)C(O)[C@@H](O)C1` (stereo partly drawn), the TGI is over 100 µM.

The compound `COc1ccc(N(C)S(=O)(=O)c2ccccc2)cc1` gave a TGI of over 100 µM. Compound `Cc1[nH]c2ccccc2c1C1Cc2ccccc2N1C(=O)/C=C/C=C/c1ccccc1` (stereo not drawn) displayed a TGI of over 100 µM. Take `COc1cc(NS(C)(=O)=O)ccc1Nc1c2ccc(Cl)cc2nc2c(OC)cccc12`: the GI50 was 2.71 µM and the TGI came out at 13.3 µM. Turning to `Cn1cncc1[C@@](N)(c1ccc(Cl)cc1)c1ccc2c(c1)c(-c1cccc(Cl)c1)cc(=O)n2C`, the GI50 was 8.4 µM and the TGI was found to be 22.2 µM. On to `COc1ccccc1OCC(=O)Nc1sc2c(c1C(N)=O)CCC2`, for which the GI50 is over 100 µM and the TGI was over 100 µM. Compound `Cc1ccc2c(c1)C(=O)/C(=C\c1ccccc1)CCS2(=O)=O` yielded a TGI of 37.8 µM.

`COc1cc(/C=C2/C(=O)N(C(=O)OC(C)C)C(Cc3cc(OC)c(OC)c(C)c3OC)C(=O)N2Cc2ccccc2)c(OC)c(C)c1OC` (stereo not drawn) registered a TGI of over 100 µM. `C/C=C/c1c(O)c(=O)c2c(OC)cc(OC)c3c4c(OC)cc(OC)c5c(=O)c(O)c(/C=C/C)c(c1c23)c54`: the TGI was 97.1 µM. `COc1cc(OC)cc(Oc2nc3ccccc3nc2C(=O)O)c1` gave a TGI of over 100 µM. Still for that read-out and setting: then `CC(C)=CC1C(COC(=O)c2cc3c(cc2Cl)OCO3)C1(C)C` (stereo not drawn), with over 100 µM; and `CC(C)CNC(=O)CCc1cccc2c1oc1c(CCN)cccc12`, with 32.7 µM; and `O=C1CCCCC1CN1CCCC1` (stereo not drawn), with over 100 µM. In turn, `CC1(C)COC(C23C4C5C2C2C3C4C52I)=N1` (stereo not drawn) displayed a TGI of over 100 µM. Compound `Cc1ccccc1C1CC(=O)CC(c2ccccc2C)C12C(=O)NC(=O)NC2=O` (stereo not drawn) displayed a TGI of over 100 µM. The same measure, in the same setting: then `COc1cc(/C=C2\[C@H]3c4c(c(OC)c(C)c(OC)c4OC)C[C@@H](C(=O)N2Cc2ccccc2)N3C(=O)OCC(C)C)c(OC)c(C)c1OC`, with over 100 µM.
